Experimental data taken from paper PMC11699347.
Results are given in words; binding and its absence hold for the method and conditions named. For part of these data: Binding seen in cells or lysates may run through a third protein. Some binding calls cover weakened binding; strength is not graded here. For part of these data: Sequences can lack the tags named with a protein. One block for each substance: values may come before it.

By UniProt entry, the sequences of proteins in these tests, tags left out. Where a name states a change or a piece, a line headed by the entry shows the natural chain unless it says otherwise. Residues count along the entry.
UniProt P97303: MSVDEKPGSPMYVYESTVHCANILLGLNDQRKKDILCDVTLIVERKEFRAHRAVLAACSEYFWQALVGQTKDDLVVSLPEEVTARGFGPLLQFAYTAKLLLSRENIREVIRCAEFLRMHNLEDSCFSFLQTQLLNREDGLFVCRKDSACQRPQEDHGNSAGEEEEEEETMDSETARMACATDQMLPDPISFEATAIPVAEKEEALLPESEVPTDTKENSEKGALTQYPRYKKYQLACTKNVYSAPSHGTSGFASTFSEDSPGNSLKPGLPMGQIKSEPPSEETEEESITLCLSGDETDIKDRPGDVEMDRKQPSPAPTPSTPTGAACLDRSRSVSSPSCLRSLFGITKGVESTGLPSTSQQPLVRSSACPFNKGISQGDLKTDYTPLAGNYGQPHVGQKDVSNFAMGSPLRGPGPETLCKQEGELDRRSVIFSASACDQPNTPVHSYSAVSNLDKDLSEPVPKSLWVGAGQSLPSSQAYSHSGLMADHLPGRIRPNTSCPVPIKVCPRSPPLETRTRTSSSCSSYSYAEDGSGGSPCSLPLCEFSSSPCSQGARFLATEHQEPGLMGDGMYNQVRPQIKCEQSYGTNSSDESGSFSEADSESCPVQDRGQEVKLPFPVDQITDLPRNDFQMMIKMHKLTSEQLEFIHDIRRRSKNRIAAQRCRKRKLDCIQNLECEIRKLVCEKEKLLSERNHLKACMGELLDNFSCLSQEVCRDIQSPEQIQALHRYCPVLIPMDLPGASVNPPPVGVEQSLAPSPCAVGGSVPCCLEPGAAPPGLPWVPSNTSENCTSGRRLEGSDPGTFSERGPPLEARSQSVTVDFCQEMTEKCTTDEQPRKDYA
GST-BACH2-IDR: residues 331-520 of P97303
UniProt Q9BYV9: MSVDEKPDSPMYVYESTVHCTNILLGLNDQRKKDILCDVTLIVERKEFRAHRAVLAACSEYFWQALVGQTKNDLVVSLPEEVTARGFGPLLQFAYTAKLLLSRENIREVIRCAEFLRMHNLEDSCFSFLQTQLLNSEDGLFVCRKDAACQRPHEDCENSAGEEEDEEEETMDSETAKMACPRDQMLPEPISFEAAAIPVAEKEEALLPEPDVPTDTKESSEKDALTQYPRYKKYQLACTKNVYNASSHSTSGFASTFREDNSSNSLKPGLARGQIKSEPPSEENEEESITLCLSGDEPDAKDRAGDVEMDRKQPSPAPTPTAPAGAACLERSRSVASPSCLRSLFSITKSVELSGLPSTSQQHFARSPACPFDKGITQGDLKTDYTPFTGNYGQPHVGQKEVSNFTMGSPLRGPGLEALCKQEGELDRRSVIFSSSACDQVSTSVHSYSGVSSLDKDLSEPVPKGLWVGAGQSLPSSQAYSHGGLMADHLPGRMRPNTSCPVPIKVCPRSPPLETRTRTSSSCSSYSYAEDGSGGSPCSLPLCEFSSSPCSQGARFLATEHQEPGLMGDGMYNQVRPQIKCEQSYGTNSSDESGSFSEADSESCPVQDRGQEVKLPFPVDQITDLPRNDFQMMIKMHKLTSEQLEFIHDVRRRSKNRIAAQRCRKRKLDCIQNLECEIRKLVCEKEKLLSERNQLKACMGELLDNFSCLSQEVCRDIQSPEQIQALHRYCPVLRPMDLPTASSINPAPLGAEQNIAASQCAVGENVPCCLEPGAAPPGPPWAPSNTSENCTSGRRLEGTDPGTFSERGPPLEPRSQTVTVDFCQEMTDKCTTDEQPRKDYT
hBACH2 BTB GAL4-DBD fusion (pFN26AhBACH2-BTB): residues 1-128 of Q9BYV9
UniProt P13864: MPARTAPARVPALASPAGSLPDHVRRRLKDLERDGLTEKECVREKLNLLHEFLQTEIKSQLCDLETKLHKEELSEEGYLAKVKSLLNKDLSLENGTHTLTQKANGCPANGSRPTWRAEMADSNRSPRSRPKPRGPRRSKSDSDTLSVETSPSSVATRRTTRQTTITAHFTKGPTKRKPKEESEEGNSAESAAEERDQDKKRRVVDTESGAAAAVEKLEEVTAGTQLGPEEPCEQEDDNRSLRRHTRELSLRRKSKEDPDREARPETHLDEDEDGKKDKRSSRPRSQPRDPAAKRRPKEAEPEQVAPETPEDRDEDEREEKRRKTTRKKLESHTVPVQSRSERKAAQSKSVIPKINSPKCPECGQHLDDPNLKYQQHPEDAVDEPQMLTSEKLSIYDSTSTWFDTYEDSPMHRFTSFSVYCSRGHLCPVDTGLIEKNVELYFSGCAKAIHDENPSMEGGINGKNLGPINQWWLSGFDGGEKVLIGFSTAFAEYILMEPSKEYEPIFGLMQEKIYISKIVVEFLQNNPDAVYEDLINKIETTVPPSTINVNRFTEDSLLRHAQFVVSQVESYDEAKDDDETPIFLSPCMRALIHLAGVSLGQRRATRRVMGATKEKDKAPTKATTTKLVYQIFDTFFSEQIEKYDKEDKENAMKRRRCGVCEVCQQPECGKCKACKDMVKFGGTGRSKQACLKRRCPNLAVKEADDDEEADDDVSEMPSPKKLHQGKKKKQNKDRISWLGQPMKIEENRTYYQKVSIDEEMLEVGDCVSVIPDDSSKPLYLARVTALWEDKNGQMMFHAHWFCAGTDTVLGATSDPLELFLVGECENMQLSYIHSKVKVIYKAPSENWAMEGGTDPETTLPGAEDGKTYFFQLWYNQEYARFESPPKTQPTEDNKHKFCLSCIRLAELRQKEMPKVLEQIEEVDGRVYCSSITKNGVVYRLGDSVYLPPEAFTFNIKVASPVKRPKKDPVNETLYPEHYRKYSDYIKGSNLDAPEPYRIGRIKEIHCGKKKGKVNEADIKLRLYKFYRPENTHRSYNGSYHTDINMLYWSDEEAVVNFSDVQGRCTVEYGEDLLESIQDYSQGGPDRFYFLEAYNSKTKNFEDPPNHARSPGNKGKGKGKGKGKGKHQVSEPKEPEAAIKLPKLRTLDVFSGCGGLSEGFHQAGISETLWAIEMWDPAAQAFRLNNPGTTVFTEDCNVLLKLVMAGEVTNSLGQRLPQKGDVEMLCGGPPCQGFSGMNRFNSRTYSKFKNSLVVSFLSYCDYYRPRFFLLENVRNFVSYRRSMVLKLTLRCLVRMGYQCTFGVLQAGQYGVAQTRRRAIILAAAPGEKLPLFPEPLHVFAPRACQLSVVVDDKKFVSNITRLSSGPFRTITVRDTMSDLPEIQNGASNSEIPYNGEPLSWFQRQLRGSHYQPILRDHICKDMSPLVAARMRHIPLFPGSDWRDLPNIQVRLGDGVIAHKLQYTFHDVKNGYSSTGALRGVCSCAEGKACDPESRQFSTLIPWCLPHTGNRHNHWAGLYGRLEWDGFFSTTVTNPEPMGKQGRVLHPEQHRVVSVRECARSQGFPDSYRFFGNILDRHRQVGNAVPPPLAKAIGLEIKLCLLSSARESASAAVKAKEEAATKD
UniProt O75376: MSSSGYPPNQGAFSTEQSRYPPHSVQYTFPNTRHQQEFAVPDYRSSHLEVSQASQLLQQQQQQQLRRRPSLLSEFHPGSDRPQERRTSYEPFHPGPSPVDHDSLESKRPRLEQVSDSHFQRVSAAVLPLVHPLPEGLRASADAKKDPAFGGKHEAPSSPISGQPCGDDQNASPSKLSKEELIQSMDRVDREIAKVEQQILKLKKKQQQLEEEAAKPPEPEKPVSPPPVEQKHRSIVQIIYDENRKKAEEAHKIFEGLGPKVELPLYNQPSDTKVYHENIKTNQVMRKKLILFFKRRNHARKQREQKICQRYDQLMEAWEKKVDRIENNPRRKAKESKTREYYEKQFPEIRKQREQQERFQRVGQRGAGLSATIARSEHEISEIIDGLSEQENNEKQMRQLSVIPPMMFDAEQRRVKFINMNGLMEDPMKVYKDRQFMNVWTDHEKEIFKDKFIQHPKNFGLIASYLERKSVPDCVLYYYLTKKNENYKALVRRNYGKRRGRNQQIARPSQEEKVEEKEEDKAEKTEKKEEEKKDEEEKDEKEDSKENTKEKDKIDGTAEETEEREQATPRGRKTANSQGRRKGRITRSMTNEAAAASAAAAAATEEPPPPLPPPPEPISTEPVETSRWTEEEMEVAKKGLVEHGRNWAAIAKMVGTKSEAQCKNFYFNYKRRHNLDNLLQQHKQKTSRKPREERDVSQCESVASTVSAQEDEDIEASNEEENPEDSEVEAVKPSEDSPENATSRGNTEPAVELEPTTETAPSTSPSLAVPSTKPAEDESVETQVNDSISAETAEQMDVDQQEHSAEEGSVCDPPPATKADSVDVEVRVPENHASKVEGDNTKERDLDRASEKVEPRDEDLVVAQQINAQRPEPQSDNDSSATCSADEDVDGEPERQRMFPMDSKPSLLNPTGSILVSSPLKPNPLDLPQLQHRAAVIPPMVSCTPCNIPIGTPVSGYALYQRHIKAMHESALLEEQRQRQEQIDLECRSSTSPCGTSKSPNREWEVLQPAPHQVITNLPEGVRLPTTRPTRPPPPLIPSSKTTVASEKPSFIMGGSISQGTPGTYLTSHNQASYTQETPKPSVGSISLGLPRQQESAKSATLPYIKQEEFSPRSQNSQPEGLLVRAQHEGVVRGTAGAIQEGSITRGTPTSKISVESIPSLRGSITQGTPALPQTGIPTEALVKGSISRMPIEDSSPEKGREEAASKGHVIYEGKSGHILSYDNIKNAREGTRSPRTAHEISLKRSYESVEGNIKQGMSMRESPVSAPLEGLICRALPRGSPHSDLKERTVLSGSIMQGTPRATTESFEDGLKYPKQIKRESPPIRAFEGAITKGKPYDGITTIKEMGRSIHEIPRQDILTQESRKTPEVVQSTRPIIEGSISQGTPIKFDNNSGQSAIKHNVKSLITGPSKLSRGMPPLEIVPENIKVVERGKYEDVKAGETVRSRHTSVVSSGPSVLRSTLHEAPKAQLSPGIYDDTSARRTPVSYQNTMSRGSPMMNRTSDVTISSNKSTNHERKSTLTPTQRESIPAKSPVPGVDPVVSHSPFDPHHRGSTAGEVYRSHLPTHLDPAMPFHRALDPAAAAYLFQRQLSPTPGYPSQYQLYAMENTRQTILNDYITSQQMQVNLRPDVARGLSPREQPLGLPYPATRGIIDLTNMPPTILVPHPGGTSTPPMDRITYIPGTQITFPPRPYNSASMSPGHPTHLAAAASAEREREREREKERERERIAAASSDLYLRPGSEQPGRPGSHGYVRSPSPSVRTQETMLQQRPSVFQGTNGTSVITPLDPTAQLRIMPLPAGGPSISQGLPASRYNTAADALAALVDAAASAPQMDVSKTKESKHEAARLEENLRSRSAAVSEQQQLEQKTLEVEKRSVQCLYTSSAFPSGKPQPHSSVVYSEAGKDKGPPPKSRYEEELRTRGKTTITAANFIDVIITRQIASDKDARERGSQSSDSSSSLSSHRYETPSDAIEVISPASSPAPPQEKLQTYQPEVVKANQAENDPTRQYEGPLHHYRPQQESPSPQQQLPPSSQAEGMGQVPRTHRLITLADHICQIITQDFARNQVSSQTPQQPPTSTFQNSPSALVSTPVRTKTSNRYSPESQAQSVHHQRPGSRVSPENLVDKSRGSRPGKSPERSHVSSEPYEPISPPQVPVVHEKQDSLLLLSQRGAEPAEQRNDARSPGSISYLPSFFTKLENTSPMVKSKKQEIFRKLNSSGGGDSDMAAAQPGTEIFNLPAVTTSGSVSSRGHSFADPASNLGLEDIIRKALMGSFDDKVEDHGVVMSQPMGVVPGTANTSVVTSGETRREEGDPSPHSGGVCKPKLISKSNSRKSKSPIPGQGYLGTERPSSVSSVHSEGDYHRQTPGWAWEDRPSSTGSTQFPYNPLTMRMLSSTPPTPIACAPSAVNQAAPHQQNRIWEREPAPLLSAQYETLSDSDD

Columns and labels:
[1] = molecular target: FLAG-HA-BACH2-IDR (mouse) (UniProt P97303); assay: co-IP; ReCLIP anti-FLAG purified samples from BAL17 cells expressing FLAG-HA-BACH2-IDR, immunoblot with anti-TBK1 or anti-DNMT1
GST-BACH2-IDR (mouse) = GST-BACH2-IDR (mouse) (UniProt P97303); assay: pull-down; 2 μg GST-BACH2-IDR on Glutathione Sepharose beads with BAL17 whole cell lysate, with or without heme, 2 h at 4°C; 20 mM HEPES pH 7.0, 50 mM NaCl; immunoblot; only the target purified
[2] = molecular target: hBACH2 GAL4-DBD fusion (pFN26A-hBACH2) (human) (UniProt Q9BYV9); assay: two-hybrid; mammalian two-hybrid in HEK293T as above, with co-expressed wild-type human TBK1 (pCAG-hTBK1)
[3] = molecular target: hBACH2 GAL4-DBD fusion (pFN26A-hBACH2) (human) (UniProt Q9BYV9); assay: two-hybrid; mammalian two-hybrid in HEK293T: GAL4-DBD fusion (pFN26A) and VP-16 AD fusion (pFN10A), pGL4.35-9xGAL4UAS-Luc reporter; also with co-expressed TBK1 or TBK1(S172A) and the TBK1 inhibitor MRT67307
FLAG-FBXO22 (mouse) = molecular target: T1, FLAG-FBXO22 (mouse) (UniProt Q78JE5); assay: co-IP; FLAG-FBXO22 and BACH2 overexpressed in HEK293T; immunoprecipitation with anti-FLAG, immunoblot with anti-FLAG or anti-BACH2
T1 sequence: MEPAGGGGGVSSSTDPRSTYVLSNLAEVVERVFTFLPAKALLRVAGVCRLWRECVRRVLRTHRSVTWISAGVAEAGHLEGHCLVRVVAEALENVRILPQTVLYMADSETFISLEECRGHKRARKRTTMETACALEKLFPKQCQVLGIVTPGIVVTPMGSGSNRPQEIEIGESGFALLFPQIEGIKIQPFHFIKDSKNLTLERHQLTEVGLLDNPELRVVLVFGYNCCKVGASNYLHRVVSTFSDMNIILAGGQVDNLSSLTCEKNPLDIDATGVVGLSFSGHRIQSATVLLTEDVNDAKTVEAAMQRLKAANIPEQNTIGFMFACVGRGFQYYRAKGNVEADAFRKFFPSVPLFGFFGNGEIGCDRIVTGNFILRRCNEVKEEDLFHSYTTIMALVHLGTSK

[4] = molecular target: hBACH2 BTB GAL4-DBD fusion (pFN26AhBACH2-BTB) (human) (UniProt Q9BYV9); assay: two-hybrid; mammalian two-hybrid in HEK293T: GAL4-DBD fusion (pFN26A) and VP-16 AD fusion (pFN10A), pGL4.35-9xGAL4UAS-Luc reporter; also with co-expressed TBK1 or TBK1(S172A) and the TBK1 inhibitor MRT67307

binding [1]: binds
binding (GST-BACH2-IDR (mouse)): binds
Substance: DNA (cytosine-5)-methyltransferase 1 (from UniProt P13864 1-1620) (enzyme)

binding [3]: binds
Substance: hNCOR1 VP-16 AD fusion (pFN10A-hNCOR1) (from UniProt O75376 1-2440)
binding [2]: no binding (condition: with co-expressed wild-type TBK1)

binding (FLAG-FBXO22 (mouse)): binds
Substance: BACH2 overexpressed in HEK293T cells (from UniProt P97303 1-839)

binding [4]: binds
Substance: hFBXO22 VP-16 AD fusion (pFN10A-hFBXO22) (from UniProt Q8NEZ5-1 1-403)
